From patent US20230340055A1 (published 2023)

Legend:
[1] = target: T1, IL-2-Rα/β/γ on the murine CTLL-2 T lymphocyte cell line (murine, UniProt P01590 22-268; P16297 27-539; P34902 23-369); assay: cell-based or functional assay
T1 sequence (looked up) 1: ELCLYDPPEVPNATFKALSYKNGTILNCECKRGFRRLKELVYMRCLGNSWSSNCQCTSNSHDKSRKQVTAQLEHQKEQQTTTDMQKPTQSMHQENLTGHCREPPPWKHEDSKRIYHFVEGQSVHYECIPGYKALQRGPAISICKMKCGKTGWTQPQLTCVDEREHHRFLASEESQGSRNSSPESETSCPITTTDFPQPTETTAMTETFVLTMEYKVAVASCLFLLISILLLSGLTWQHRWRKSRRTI
T1 sequence (looked up) 2: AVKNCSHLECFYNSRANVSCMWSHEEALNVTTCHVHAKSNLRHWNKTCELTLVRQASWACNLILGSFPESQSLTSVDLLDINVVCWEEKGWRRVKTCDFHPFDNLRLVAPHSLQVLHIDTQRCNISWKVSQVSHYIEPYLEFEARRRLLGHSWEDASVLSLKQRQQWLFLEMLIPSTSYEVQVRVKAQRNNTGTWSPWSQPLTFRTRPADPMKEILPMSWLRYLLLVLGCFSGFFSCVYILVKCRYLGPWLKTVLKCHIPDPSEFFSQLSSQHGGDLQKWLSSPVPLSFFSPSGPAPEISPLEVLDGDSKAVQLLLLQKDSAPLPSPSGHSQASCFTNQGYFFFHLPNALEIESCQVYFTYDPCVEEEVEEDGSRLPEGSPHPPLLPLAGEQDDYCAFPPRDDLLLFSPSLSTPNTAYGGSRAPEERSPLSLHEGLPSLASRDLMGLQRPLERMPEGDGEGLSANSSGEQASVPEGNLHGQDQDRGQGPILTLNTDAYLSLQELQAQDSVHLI
T1 sequence (looked up) 3: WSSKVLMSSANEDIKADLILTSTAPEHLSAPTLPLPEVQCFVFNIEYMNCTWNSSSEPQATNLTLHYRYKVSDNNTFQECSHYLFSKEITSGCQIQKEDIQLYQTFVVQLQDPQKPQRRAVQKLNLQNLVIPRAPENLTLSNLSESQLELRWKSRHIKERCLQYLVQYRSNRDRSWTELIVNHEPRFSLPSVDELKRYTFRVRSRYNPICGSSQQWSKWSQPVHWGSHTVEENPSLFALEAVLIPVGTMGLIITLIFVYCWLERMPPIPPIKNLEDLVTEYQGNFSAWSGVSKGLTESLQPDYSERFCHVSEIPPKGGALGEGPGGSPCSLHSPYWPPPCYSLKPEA

[2] = target: T2, IL-2Rβγ (dimeric intermediate affinity IL-2 receptor), human, on cells (human, UniProt P14784 27-551; P31785 23-369); assay: cell-based or functional assay
T2 sequence (looked up) 1: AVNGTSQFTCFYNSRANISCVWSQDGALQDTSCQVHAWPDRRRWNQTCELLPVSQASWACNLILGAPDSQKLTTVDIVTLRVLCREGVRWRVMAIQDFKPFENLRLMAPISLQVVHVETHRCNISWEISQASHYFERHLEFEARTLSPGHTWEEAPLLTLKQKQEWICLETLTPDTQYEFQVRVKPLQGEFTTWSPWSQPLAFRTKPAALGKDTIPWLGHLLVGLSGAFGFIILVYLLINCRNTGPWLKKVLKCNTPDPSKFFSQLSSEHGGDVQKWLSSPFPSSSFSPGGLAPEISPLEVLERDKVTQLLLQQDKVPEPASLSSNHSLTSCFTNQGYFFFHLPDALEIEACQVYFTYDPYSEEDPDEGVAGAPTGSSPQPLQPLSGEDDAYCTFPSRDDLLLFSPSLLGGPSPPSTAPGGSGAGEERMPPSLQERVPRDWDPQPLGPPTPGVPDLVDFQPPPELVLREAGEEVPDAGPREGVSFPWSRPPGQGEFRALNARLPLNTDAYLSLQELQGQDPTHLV
T2 sequence (looked up) 2: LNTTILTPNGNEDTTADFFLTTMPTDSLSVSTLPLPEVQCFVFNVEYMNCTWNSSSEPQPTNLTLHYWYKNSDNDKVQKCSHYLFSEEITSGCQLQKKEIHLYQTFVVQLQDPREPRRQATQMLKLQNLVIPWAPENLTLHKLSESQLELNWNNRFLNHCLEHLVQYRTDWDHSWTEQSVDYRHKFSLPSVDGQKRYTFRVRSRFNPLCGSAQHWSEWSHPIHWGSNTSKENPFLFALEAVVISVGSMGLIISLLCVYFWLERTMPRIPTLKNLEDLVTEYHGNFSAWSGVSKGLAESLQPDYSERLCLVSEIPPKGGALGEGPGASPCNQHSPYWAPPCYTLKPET

[3] = target: T3, Human IL-2 Receptor alpha, Fc-Tag (Symansis, New Zealand) (human, UniProt P01589 22-240); assay: SPR; KD to IL-2Rα divided by KD to IL-2Rβ of the same compound
T3 construct: extracellular domain; Bought reagent; also called IL-2Rα; IL-2Rα-Fc; not shown: Fc-Tag (captured by anti-human IgG (Fc) antibody)
T3 sequence (looked up): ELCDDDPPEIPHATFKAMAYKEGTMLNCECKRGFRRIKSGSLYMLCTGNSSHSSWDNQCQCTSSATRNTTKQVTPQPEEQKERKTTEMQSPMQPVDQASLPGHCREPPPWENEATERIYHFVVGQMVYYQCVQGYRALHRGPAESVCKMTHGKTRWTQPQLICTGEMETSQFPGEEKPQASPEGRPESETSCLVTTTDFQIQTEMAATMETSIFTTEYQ
Experimental: (§1) For the determination of binding kinetics to IL-2Rα the following chip preparation was used: Human IL-2 Receptor alpha, Fc-Tag (Symansis, New Zealand) was diluted in HBS-EP running buffer (GE Healthcare, 10 mM HEPES, 150 mM NaCl, 3 mM EDTA, 0.05% Surfactant P20, pH 7.4) to approx. 0.25 µg/mL and immobilized at a flow rate of 50 µL/min for 60 s to achieve 90 - 110 response units (RU).
as §1, with “IL-2Rβ” for “IL-2Rα”, “beta,” for “alpha,”, “around” for “approx.”, “300” for “90”, “330” for “110”
(§2) (50 µL/min flow rate, 60 s contact time, 300 s dissociation time). Double referenced data (subtracted data from the reference flow cell and the buffer only samples) was analysed via a kinetic fit (1:1 binding model) to determine KD, kₐ and kd. Regeneration after each cycle was performed with 3 M MgCl₂.

[4] = target: T3, Human IL-2 Receptor alpha, Fc-Tag …; assay: SPR (Biacore T200), IL-2Rα-Fc captured on anti-human IgG (Fc) CM5 chip, IL-2 as analyte, multi-cycle kinetics, 1:1 kinetic fit, 25 C
Experimental: as §1, with “0.67” for “0.25”, “80” for “90”, “100” for “110”
as §2

[5] = target: T4, Human IL-2 Receptor beta, Fc-Tag (Symansis, New Zealand) (human, UniProt P14784 27-240); assay: SPR (Biacore T200), IL-2Rβ-Fc captured on anti-human IgG (Fc) CM5 chip, IL-2 as analyte, multi-cycle kinetics, 1:1 kinetic fit, 25 C
T4 construct: extracellular domain; Bought reagent; also called IL-2Rβ; IL-2Rβ-Fc; not shown: Fc-Tag (captured by anti-human IgG (Fc) antibody)
T4 sequence (looked up): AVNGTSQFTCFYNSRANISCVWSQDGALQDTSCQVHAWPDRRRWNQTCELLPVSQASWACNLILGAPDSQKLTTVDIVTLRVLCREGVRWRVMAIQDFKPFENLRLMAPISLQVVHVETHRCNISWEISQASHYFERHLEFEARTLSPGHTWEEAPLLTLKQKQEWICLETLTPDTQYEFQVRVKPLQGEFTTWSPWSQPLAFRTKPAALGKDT
Experimental: as §1, with “IL-2Rβ” for “IL-2Rα”, “beta,” for “alpha,”, “around 0.80” for “approx. 0.25”, “140” for “90”, “180” for “110”
as §2

[6] = target: T3, Human IL-2 Receptor alpha, Fc-Tag …; assay: SPR (Biacore T200), IL-2Rα-Fc captured on anti-human IgG (Fc) CM5 chip, IL-2 as analyte, multi-cycle kinetics, 1:1 kinetic fit, 25 C; remark: listed apart in the source
Experimental: as §1, §2

[7] = target: T4, Human IL-2 Receptor beta, Fc-Tag …; assay: SPR (Biacore T200), IL-2Rβ-Fc captured on anti-human IgG (Fc) CM5 chip, IL-2 as analyte, multi-cycle kinetics, 1:1 kinetic fit, 25 C; remark: listed apart in the source
Experimental: as §1, with “IL-2Rβ” for “IL-2Rα”, “beta,” for “alpha,”, “around” for “approx.”, “300” for “90”, “330” for “110”
as §2

EC50 CTLL-2, STAT5 phosphorylation [1]: 0.0076 µg/mL
Ratio (E50 CTLL-2 cells/EC50 HH cell) [1]: 0.136
EC50 HH cells, STAT5 phosphorylation [2]: 0.0561 µg/mL
KD-Ratio (α/β) [3]: 0.0248
Kd [4]: 8.32 nM
Kd [5]: 427 nM
Kd [6]: 16.2 nM
Kd [7]: 654 nM
B1: protein 5a (IL-2 of SEQ ID NO:213; Peprotech, cat # AF-200-02) (ligand)
chain: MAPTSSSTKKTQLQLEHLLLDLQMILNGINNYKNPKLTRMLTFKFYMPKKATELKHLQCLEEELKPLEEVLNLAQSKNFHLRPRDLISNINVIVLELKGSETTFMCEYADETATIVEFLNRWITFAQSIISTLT
notes: also called control wild type IL2 protein 5a

Like-named read-outs stand apart in the source and are kept apart here.
